# In all, about 33,000 sequences were measured (“E-score (-0.5 to 0.5)”: median about -0.043, highest 2% from about 0.37 on). The list shows a part of the results.
# Biological target: T1, Upc2 (UniProt Q12151)
# T1 sequence: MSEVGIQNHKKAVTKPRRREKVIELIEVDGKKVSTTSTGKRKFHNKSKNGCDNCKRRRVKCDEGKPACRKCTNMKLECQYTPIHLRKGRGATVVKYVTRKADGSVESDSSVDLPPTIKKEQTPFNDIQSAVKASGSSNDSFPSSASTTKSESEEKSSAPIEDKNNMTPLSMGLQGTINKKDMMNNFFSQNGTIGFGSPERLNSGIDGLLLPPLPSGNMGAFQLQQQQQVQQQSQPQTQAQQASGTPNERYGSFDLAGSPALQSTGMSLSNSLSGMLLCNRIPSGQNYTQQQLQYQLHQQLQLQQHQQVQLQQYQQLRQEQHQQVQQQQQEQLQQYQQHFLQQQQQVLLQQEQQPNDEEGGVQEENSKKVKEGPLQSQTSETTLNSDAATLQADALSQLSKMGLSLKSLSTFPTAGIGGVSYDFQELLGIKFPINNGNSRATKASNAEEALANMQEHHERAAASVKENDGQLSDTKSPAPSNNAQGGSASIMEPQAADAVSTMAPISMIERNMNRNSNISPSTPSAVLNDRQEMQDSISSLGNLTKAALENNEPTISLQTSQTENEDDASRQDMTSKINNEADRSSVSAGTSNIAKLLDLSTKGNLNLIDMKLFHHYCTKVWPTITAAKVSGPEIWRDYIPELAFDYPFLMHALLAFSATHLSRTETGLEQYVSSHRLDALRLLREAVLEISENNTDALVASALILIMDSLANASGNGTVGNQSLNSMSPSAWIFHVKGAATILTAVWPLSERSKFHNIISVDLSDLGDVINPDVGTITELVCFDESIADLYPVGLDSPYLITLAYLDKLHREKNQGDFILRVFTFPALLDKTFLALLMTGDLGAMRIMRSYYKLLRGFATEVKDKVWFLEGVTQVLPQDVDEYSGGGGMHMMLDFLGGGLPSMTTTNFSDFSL
# Assay: PBM E-score (8-mer binding enrichment) (E-score (-0.5 to 0.5)); higher = stronger / more preferred TF binding; most listed sequences are background and not binding sites
# Conditions: protein concentration: 200 nM; construct: GST-full length
# Summary of the method: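 PURExpress in vitro transcription/translation supplied GST-tagged yeast transcription factors, either full-length or DNA-binding domain. Applied at about 100-200 nM to universal all-10-mer Agilent arrays double-stranded by primer extension, the bound protein was detected with fluorescent anti-GST. E-scores, modified Wilcoxon-Mann-Whitney statistics, were given by the Universal PBM Analysis Suite to ungapped eight-base words pooled with their reverse complements after masliner normalisation.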
row,Sequence,PBM E-score
1,CGTTACCC,0.137
2,CAACCCGG,-0.0562
3,TGATCAAA,-0.0795
4,ATAGTAAA,0.0674
5,GAAATAGC,-0.0276
6,CCGTCGGC,0.026
7,GACGTACA,0.305
8,GTTTCAGA,-0.0953
9,ACCCAAGA,-0.256
10,AGCGAGCC,0.189
11,AGAGAGTC,-0.0633
12,CGCGCACA,0.0678
13,AAAATGTC,0.14
14,AGCTCTGG,-0.214
15,AAAATTGC,0.233
16,CATCGAGA,-0.00533
17,CAATGGTG,-0.214
18,ATGGTTCC,-0.0818
19,GTGGGAGA,-0.0577
20,CGACCGAG,0.18
21,CAACTTGC,-0.0613
22,CCACCTAA,-0.143
23,AGACCGCT,-0.126
24,CTCAGAAG,-0.132
25,ACGGGTGG,-0.0334

row,Sequence,PBM E-score
1,CATAACAA,0.175
2,ATGCTAAC,-0.108
3,ACTCCGAC,-0.123
4,CAGGCAAA,0.0826
5,GCGCTAAC,0.123
6,CCTGGACC,0.0305
7,ACCCCACG,-0.258
8,ATCGGAAC,0.177
9,GTGGGCAA,-0.156
10,AAGTCGCC,-0.154
11,CTAACTAA,-0.0564
12,AGCCTGAA,-0.107
13,ATGCTCGC,0.165
14,AACTTGGC,-0.0699
15,ACGTCTAC,0.091
16,CCAGAGCG,-0.232
17,AAATCCCC,-0.147
18,GACGCATA,0.114
19,ACTGACGG,-0.306
20,ACTCCCTC,-0.175
21,ACCATTGG,-0.114
22,ATCACACA,-0.108
23,CATCGACA,-0.133
24,AAGTGTGG,-0.25
25,AGTCCTCG,-0.00049

row,Sequence,PBM E-score
1,AGGCCTGC,-0.273
2,GGAGCGGA,0.0233
3,CGGGAACG,0.404
4,ACCCCGAG,-0.289
5,AACGCCTA,0.0681
6,ACACACTC,-0.042
7,CATGAATA,-0.123
8,GTGAAACA,0.0101
9,CCCCCAGG,-0.291
10,ATGATTTC,0.0384
11,ATCCTGGA,-0.0858
12,GGTCCATA,-0.237
13,AGCCAGAC,-0.0311
14,GGCCTAGA,-0.258
15,AGGTAGTC,-0.175
16,ACTCTGAC,-0.106
17,CGTAAAAC,0.389
18,CGACATTA,0.178
19,GTAGCCTA,-0.0336
20,GTAGCGAC,-0.0629
21,GCATTGAA,0.0862
22,CATCTTTC,-0.0518
23,ACACCCAT,0.148
24,GCTAACGA,0.304
25,AACTTACA,-0.0411

row,Sequence,PBM E-score
1,CATAAATG,-0.27
2,ACTCATCG,-0.074
3,GACAGGAC,-0.0481
4,CGTGTCCC,-0.0379
5,GGCCAGGA,-0.223
6,AAGTAAGA,-0.183
7,AAGGCACG,0.0329
8,AAATGTCC,-0.0702
9,AATGGCGT,0.039
10,AAATTCCC,-0.178
11,GCGCTACA,0.00749
12,GGGGGATA,-0.161
13,GTCGTGTA,0.308
14,AACCCACG,0.00587
15,ATATAGAT,0.216
16,AAAATGTG,-0.179
17,CCGTGATA,-0.127
18,GAGTGGAC,-0.0953
19,GCGATGAC,0.177
20,AATCCACA,-0.135
21,CCGTCAAC,-0.103
22,AGGTTGGG,-0.0253
23,CACCCCAG,-0.161
24,TCACCCCA,-0.133
25,AATATCCA,-0.0466

row,Sequence,PBM E-score
1,AGTATGAC,0.0571
2,CAGTTGCA,-0.0182
3,CATGTTAC,0.0816
4,GTAGCAAA,0.033
5,ATAGCTGA,-0.103
6,GATTTCCA,-0.112
7,AAACCAGG,0.00031
8,ACCCTCAC,-0.244
9,GGAAGATA,0.013
10,CGCACCTC,-0.0714
11,AAGCTAGA,-0.166
12,GTTAATGA,0.135
13,CGACAGCC,0.0974
14,AAGACATC,-0.298
15,CACGCAGG,-0.0978
16,TAGCGTCA,-0.0212
17,CAGCCCCG,0.0051
18,CCATAGCC,-0.305
19,CCGGCCGA,-0.214
20,CACTCTTC,-0.0626
21,ATCGGCAT,0.0274
22,GCGGCAAA,-0.153
23,AATCCCCC,-0.144
24,ATGTAATC,0.0213
25,AATCGCTG,-0.0811

row,Sequence,PBM E-score
1,CGAATGTA,0.195
2,CAGCAAGA,-0.0837
3,CGCCATTA,-0.0838
4,CTGCAAAC,0.0943
5,AATGAAGC,-0.0566
6,CCCTGTCC,0.00553
7,GACTTGAC,-0.266
8,CCGTCTTA,-0.0104
9,ACCGCTTA,0.144
10,CTCCTAAA,-0.0262
11,CAATATTA,0.232
12,TAGGAAAA,-0.305
13,AAGCTCGG,0.0373
14,ATTGTTCC,0.00512
15,AGGCGGAG,-0.075
16,AGTCGGCA,-0.0445
17,GCGCAGCC,-0.211
18,AGAGATTG,-0.0876
19,AGAGCTGA,-0.202
20,ATGCTTAG,-0.132
21,AAGAAGCT,-0.0485
22,TACCGAAA,0.201
23,TACACAGA,-0.0979
24,CCTTACAC,0.0063
25,AACAAGCG,0.259

row,Sequence,PBM E-score
1,GACCATTA,-0.0333
2,ACTTACAC,-0.034
3,AGCGCCTG,0.00494
4,CAATGTCG,0.0532
5,AATGAGTC,-0.0524
6,CTTAGCGA,0.271
7,GCGTTGCC,-0.132
8,CGAGCCGC,0.252
9,ATCCTAAC,-0.0571
10,AGGTAAGG,-0.232
11,AGACTACT,0.0886
12,ACAAATGA,-0.15
13,GGACGCCA,-0.232
14,GCCGACCA,-0.185
15,CATAGGGG,-0.184
16,CGCGTGAA,0.199
17,ATGGTCAG,-0.0547
18,GAACTGGA,-0.0503
19,TATGAAAA,0.109
20,AGGATTAA,-0.119
21,GATAGGCA,-0.0012
22,CAAACTCC,0.0564
